# From PubChem BioAssay AID1460 (National Center for Advancing Translational Sciences (NCATS), 2008)
# Screen size: about 270,000 compounds; about 5,800 (2.1%) were called active. The shares of active, inactive and inconclusive entries below differ from those in the screen. The call rests on the fitted dose curve; in most records, active means well fitted inhibition curve with a large enough effect; inconclusive means small, poorly fitted or top-dose-only effect; inactive means flat fitted curve, though single readings scatter. A potency beside an inconclusive call is a rough fit, not a confirmed value.
# Molecular target: Microtubule-associated protein tau (Homo sapiens) (UniProt P10636)
# Experiment: qHTS for Inhibitors of Tau Fibril Formation, Thioflavin T Binding; further: nearly all actives have a fitted effect of over 55% in size
# Settings: recombinant tau K18 P301L (four-repeat tau fragment), heparin-induced fibrillization, ThT fluorescence; series mostly up to 57.4 µM
# Procedure, shortened: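 Aggregation was driven by heparin (20 uM final) acting on recombinant tau […] bearing P301L in 100 mM sodium acetate pH 7; fibrils were detected with Thioflavin T.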
# Potency means the concentration at half of the fitted maximal effect; tags describe the fitted curve by direction and shape.
# UniProt P10636, sequence (P10636 whole entry, looked up): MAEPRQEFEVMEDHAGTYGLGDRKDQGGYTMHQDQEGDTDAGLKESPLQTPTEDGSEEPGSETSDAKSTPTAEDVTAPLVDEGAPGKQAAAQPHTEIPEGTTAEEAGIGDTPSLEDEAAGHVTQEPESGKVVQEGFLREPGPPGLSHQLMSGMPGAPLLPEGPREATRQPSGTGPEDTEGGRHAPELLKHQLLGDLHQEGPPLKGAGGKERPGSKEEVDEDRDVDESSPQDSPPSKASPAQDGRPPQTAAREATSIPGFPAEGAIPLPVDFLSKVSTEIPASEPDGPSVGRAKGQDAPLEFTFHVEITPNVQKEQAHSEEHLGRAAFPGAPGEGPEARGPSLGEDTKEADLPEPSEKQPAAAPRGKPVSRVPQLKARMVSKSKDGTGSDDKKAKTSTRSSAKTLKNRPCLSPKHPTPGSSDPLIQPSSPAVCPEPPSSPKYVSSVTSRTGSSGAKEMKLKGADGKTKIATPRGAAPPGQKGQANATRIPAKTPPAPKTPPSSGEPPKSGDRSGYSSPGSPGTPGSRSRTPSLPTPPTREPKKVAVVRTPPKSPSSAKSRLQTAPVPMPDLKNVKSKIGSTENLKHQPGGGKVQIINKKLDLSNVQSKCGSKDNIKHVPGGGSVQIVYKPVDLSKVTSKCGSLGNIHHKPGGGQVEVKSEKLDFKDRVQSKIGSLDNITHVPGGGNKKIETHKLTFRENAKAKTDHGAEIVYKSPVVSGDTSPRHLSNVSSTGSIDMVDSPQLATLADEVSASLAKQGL
row,SMILES,Potency
1,CCOC(=O)c1cnc2c(C)c(Cl)ccc2c1Nc1ccc(N2CCOCC2)cc1,"inconclusive: 14.1 µM [inhibitor, partial curve]"
2,COc1ccc(NC(=S)NC(NC(=O)c2ccc(Cl)cc2Cl)C(Cl)(Cl)Cl)c([N+](=O)[O-])c1 (stereo unspecified),"inconclusive: 14.1 µM [inhibitor, partial curve]"
3,C/C(=N\NC(=O)c1ccc(Cl)c(Cl)c1)c1ccc(Br)s1,"inconclusive: 5.01 µM [inhibitor, partial curve]"
4,CCc1cccc(NC(=O)CN(C)S(=O)(=O)c2ccc3c(c2)CCCN3C(C)=O)c1,inactive
5,Cc1ccc2oc(=O)n(CCCOc3ccccc3Cl)c2c1,"inconclusive: 15.8 µM [inhibitor, partial curve, poor fit]"
6,Cc1cc(C)c(S(=O)(=O)NCC(c2ccc(N(C)C)cc2)N2CCOCC2)c(C)c1 (stereo unspecified),"inconclusive: 22.4 µM [inhibitor, single point]"
7,CC(C)Cn1c(SCC(=O)NC(=O)Nc2ccc3c(c2)OCCO3)nc2ccccc2c1=O,"inconclusive: 28.2 µM [activator, partial curve]"
8,Nc1n[nH]c(-c2ccc([N+](=O)[O-])cc2[N+](=O)[O-])n1,"inconclusive: 39.8 µM [inhibitor, single point]"
9,Cc1nn(-c2ccccc2)c(C)c1-c1cc(C(=O)N/N=C/c2ccc(O)cc2)[nH]n1,"inconclusive: 1.41 µM [inhibitor, full curve, poor fit]"
10,CCCCN(CCCC)c1ncnc2nc[nH]c12,inactive
11,O=C(Nc1ccc2nc(-c3ccc(Br)o3)[nH]c2c1)c1cccs1,"inconclusive: 5.01 µM [inhibitor, partial curve]"
12,Cc1ccccc1C(=O)Nc1ccc(C(=O)N/N=C/c2ccncc2)cc1,"inconclusive: 14.1 µM [inhibitor, partial curve, poor fit]"
13,O=c1c2ccccc2c(C=Nc2cccc(O)c2)c(O)n1-c1ccc2c(c1)OCO2,"inconclusive: 39.8 µM [inhibitor, single point]"
14,COc1ccccc1NC(=O)c1nn(-c2cccc(C(F)(F)F)c2)ccc1=O,"inconclusive: 15.8 µM [inhibitor, partial curve, poor fit]"
15,O=C(NCc1cccnc1)c1ccc(S(=O)(=O)N2CCOCC2)cc1,inactive
16,O=C(CC(=O)c1cccc([N+](=O)[O-])c1)Nc1ccccc1Cl,"inconclusive: 15.8 µM [inhibitor, partial curve]"
17,Cc1ccc(/C([O-])=C(/C(=S)NCc2ccc3c(c2)OCO3)[n+]2ccc(N(C)C)cc2)c(C)c1,inactive
18,CC(C)Sc1nsc2nc(=O)c(/C=C3\C=Nc4ccccc43)c(N)n12,"inconclusive: 7.08 µM [inhibitor, partial curve]"
19,COc1cc(/C=C2/C(=O)NN(c3ccc(Cl)cc3)C2=O)ccc1OC(=O)c1ccco1,active: 14.1 µM
20,O=S(=O)(Cc1cc(-c2ccccc2Cl)no1)c1ccccc1,"inconclusive: 3.98 µM [inhibitor, single point]"
21,CCN(CC)S(=O)(=O)c1ccc(C(=O)Nc2cc3oc4ccccc4c3cc2OC)cc1,"inconclusive: 0.0891 µM [activator, partial curve, poor fit]"
22,CCCCCCCCCCCCCCCCCC(=O)NCC(COP(=O)([O-])OCC[N+](C)(C)C)OCC (stereo unspecified),"inconclusive: 35.5 µM [inhibitor, single point]"

row,SMILES,Potency
1,O=C(NCc1ccccc1)c1cccc(NC(=O)N2CCSc3ncccc32)c1,inactive
2,CCOC(=O)c1cnc(-n2nc(C)cc2C)nc1NNc1cc(C)nc(-c2ccccc2)n1,"inconclusive: 25.1 µM [inhibitor, single point]"
3,Fc1c(CSC(=S)N2CCOCC2)cccc1CSC(=S)N1CCOCC1,inactive
4,CCOCCCn1c(NN)nc2ccccc2c1=O,"inconclusive: 31.6 µM [inhibitor, single point]"
5,COc1ccc(-c2cnc(NCc3ccc(C)cc3)n2C)cc1,"inconclusive: 44.7 µM [inhibitor, partial curve, poor fit]"
6,NC(=O)CC(NC(=O)c1ccccc1)c1ccc(NCC2CC2)c([N+](=O)[O-])c1 (stereo unspecified),"inconclusive: 10 µM [inhibitor, partial curve]"
7,Nc1c(-c2ccccn2)cnn1-c1nc(-c2ccc(F)cc2)cs1,"inconclusive: 5.62 µM [inhibitor, partial curve]"
8,CCC1(c2ccc(Cl)cc2)NC(=S)N(c2ccc(C)cc2)N1 (stereo unspecified),"inconclusive: 15.8 µM [inhibitor, partial curve]"
9,CCC(C)NC(=O)c1sc2nc(C)c(C(=O)Nc3ccc(C)cc3C)c(-c3ccc(Br)cc3)c2c1N (stereo unspecified),inactive
10,Cc1ccc(Sc2ccc(/C=N/O)cc2[N+](=O)[O-])cc1,"inconclusive: 12.6 µM [inhibitor, partial curve]"
11,CCOC(=O)c1ccc(NC(=O)CCc2nc(-c3ccc(Cl)cc3)no2)cc1,"inconclusive: 1.12 µM [inhibitor, full curve]"
12,CCOc1ccccc1CNC(=O)Cn1nc(C)c2nn(-c3ccc(Cl)cc3)c(C)c2c1=O,inactive
13,COc1ccc(OCC(O)CNc2ccc(Br)cc2)cc1 (stereo unspecified),"inconclusive: 15.8 µM [inhibitor, partial curve]"
14,O=C(Nc1cccnc1)Nc1cc(Cl)cc(Cl)c1,"inconclusive: 35.5 µM [activator, single point]"
15,COc1cc(-c2nc3ccccn3c2/N=C/c2ccccc2)ccc1O,"inconclusive: 17.8 µM [inhibitor, partial curve]"
16,CCCSc1nnc2c(n1)OC(CC)N(C(C)=O)c1ccccc1-2 (stereo unspecified),inactive
17,CC(=O)Nc1c(O)nc(SCC(=O)Nc2sc3c(c2C#N)CCCCCC3)[nH]c1=O,"inconclusive: 39.8 µM [inhibitor, single point]"
18,CC(C)(C)OC(=O)N/N=C/c1cc(N=Nc2ccccc2)ccc1O,"inconclusive: 2.51 µM [inhibitor, full curve]"
19,COc1cc(C2Oc3cc(C4Oc5cc(O)cc(O)c5C(=O)C4O)ccc3OC2CO)ccc1O (stereo unspecified),"inconclusive: 22.4 µM [inhibitor, partial curve]"
20,O=C(Nc1nnc(S(=O)(=O)N2CCCC2)s1)c1ccccc1Cl,active: 3.55 µM
21,CCNC(=S)/C(=C(/[O-])c1ccc([N+](=O)[O-])cc1)[n+]1ccccc1,"inconclusive: 6.31 µM [inhibitor, partial curve]"
22,CCCCCc1ccc(-c2ccc(OCC)cc2)nc1,"inconclusive: 17.8 µM [inhibitor, partial curve]"

row,SMILES,Potency
1,O=C(COc1c(Br)cc(Br)c2cccnc12)N1CCc2ccccc2C1,"inconclusive: 20 µM [inhibitor, partial curve]"
2,COc1ccc(-c2coc3c(O)c(OC)ccc3c2=O)cc1,"inconclusive: 20 µM [inhibitor, partial curve]"
3,CCCCc1nn2c(=O)cc(COC(=O)CNC(=O)c3ccccc3C)nc2s1,"inconclusive: 39.8 µM [inhibitor, single point]"
4,COc1ccc(OC)c(NC(=O)c2ccc(-c3nc(COc4ccccc4)c(C)o3)cc2)c1,"inconclusive: 4.47 µM [inhibitor, full curve]"
5,Cc1ccc2nc(Nc3ccc(Br)cc3)nc(-c3ccccc3)c2c1,inactive
6,Nc1nn(-c2ccccc2)nc1C(=O)OCc1ccccc1F,"inconclusive: 15.8 µM [inhibitor, single point]"
7,COc1ccc(N=Nc2cnc(C)nc2-c2ccccc2)cc1,active: 17.8 µM
8,COc1ccc2nc(SCC(=O)N3CCCCCC3)c(C#N)cc2c1,"inconclusive: 20 µM [inhibitor, single point]"
9,CSc1ccc(C2c3c(oc4ccc(F)cc4c3=O)C(=O)N2c2ccc(C)cn2)cc1 (stereo unspecified),inactive
10,Cc1c(C(=O)NCc2ccc(F)cc2)sc2nc3n(c(=O)c12)CCC3,"inconclusive: 20 µM [inhibitor, partial curve]"
11,COc1ccc(-c2ccc(=O)n(CC(=O)Nc3ccc(N(C)C)cc3)n2)cc1,"inconclusive: 35.5 µM [inhibitor, single point]"
12,CC(=O)Nc1ccc(NC(=O)Nc2sc3nc4n(c(=O)c3c2C)CCC(C)CC4)cc1 (stereo unspecified),"inconclusive: 7.08 µM [inhibitor, partial curve]"
13,CCCOc1ccc(N2C(=O)CC(N3CCN(c4ccccc4F)CC3)C2=O)cc1 (stereo unspecified),inactive
14,COc1cc(-c2nc3cnccn3c2Nc2ccc3c(c2)OCCO3)ccc1O,"inconclusive: 31.6 µM [inhibitor, partial curve]"
15,COc1ccc(/C=C/C(=O)Nc2ccc(Cl)c(Cl)c2)cc1OC,"inconclusive: 14.1 µM [activator, partial curve]"
16,CCOc1ccccc1N1CCN(C(=O)c2cc(C)oc2C)CC1,"inconclusive: 25.1 µM [inhibitor, partial curve]"
17,COC(=O)CCCCCCCCC(O)CN(C)C (stereo unspecified),inactive
18,CC(C)C[C@@H](CC(=O)N[C@@H](CCC(=O)O)CC(=O)O)NC(=O)[C@@H]1CCCC[C@H]1NC(=O)C[C@@H](NC(=O)C[C@H](Cc1c[nH]c2ccccc12)NC(=O)[C@@H]1CNCC[C@H]1N)C(C)C,inactive
19,Cc1ccc(NC(=O)Nc2ccccc2C(N)=O)cc1,inactive
20,COc1ccc(Cc2nc(C(=O)Nc3ccccc3)cs2)cc1,"inconclusive: 39.8 µM [inhibitor, single point]"
21,CCn1c(C(=O)N2CCCC(C(=O)NCCc3ccc(C)cc3)C2)cc2sccc21 (stereo unspecified),inactive
22,COc1cc(NC(=O)c2ccc(Br)o2)ccc1NC(=O)c1ccccc1Cl,"inconclusive: 12.6 µM [inhibitor, partial curve]"
